Measurements from PubChem BioAssay AID686971 (National Center for Advancing Translational Sciences (NCATS), 2013).
Among all 360,000 compounds or so, about 7,500 (2.1%) were called active. The inconclusive results got no clear call from the source; some entries with a clear call stand among them for comparison. Calls follow the shape of the dose curve; as a rule, active = well fitted cell-killing curve with a large enough effect; inconclusive = small, poorly fitted or top-dose-only effect, or effect the other way, or another doubt; inactive = no such curve, though single readings can be large or run the other way. Potencies of inconclusive entries are left out as doubtful fits.

Assay: qHTS for induction of synthetic lethality in tumor cells producing 2HG: qHTS for the HT-1080-IDH1KD cell line;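 as to activity, negative = toxicity: 0% = DMSO wells and -100% = cell-free medium wells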
Conditions: HT-1080 IDH1 knockdown viability, ATP luminescence, 48 h; activity, negative = toxicity: at 46.1 µM (top of the series) unless noted
How it was run: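 In this qHTS, HT-1080 cells depleted of IDH1 are exposed for 48 h at 37 °C to compound titrations. Toxicity is scored from CellTiter-Glo luminescence, with DMSO as full viability and medium alone as none.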
Potency is read from the fitted curve at half-maximal effect; tags tell the direction and shape of the fitted curve.

SMILES | Potency | activity, negative = toxicity
COc1cccc(OC)c1C1=CC(=O)C[C@H](c2ccc3c(c2)OCO3)C1 | inconclusive [cytotoxic, partial curve, poor fit] | 
COC1=CC(=O)OC(c2ccccc2)C1 (stereo not given) |  | inactive: 12.8%
C[C@@H]1O[C@@H](OC[C@H]2O[C@@H](Oc3c(-c4ccc(O)c(O)c4)oc4cc(O)cc(O)c4c3=O)[C@H](O)[C@@H](O)[C@@H]2O)[C@H](O)[C@H](O)[C@H]1O |  | inactive: 9.87%
CCCCn1c(CCC(=O)O)nc2cc(S(=O)(=O)N(CC)CC)ccc21 |  | inactive: 2.22%
C[C@H](CO)N1C[C@H](C)[C@H](CN(C)C(=O)Nc2ccc(F)cc2)OCc2cnnn2CCCC1=O |  | inactive: -5.35%
COc1ccc2cc(CN(C(=O)Nc3ccccc3OC)C3CCCC3)c(=O)[nH]c2c1 | inconclusive [cytotoxic, single point] | 
Cc1ccc(C(C(=O)NC2CCCC2)N(C(=O)Cc2cccs2)c2ccc(C)c(C)c2)o1 (stereo not given) | inconclusive [cytotoxic, single point] | 
C[C@H](CO)NC(=O)c1nc[nH]c1C(=O)N[C@@H](C)c1ccccc1 |  | inactive: 0.707%
Cc1c(C(=O)Nc2nc3ccccc3[nH]2)oc2ccccc12 |  | inactive: -16.9%
Cc1ccc(-c2cc(NC=O)c3ncc(-c4cnn(C)c4)n3c2)cc1 | inconclusive [cytotoxic, full curve] | 
Fc1cccc(Cc2c(-c3cccc(Cl)c3)nc3c4ccccc4ccn23)c1 | inconclusive [cytotoxic, partial curve, poor fit] | 
CCOc1ccc2nc(N3CCCC(C(=O)N4CCN(CC)CC4)C3)sc2c1 (stereo not given) |  | inactive: -16.9%
CCOC(=O)C(Oc1ccc(=O)n(-c2ccccc2)n1)C(C)=O (stereo not given) |  | inactive: -3.07%
COc1ccc(-c2nc(CN3CCCCC3c3nccn3C)c(C)o2)c(C)c1C (stereo not given) | inconclusive [cytotoxic, single point] | 
CCOc1ccc(NCc2nnc(SCC(=O)Nc3nc(-c4ccccc4)cs3)n2-c2ccccc2)cc1 |  | inactive: -28.9%
O=C(Nc1cccc2ccccc12)c1ccc([N+](=O)[O-])s1 | inconclusive [cytotoxic, single point] | 
CN(C)CCCN(C(=O)c1ccc(S(=O)(=O)N(C)C2CCCCC2)cc1)c1nc2ccc(Br)cc2s1 | inconclusive [cytotoxic, single point] | 
CC(C)CNC(=S)NC1CC2CCCC(C1)N2Cc1cccs1 (stereo not given) | inconclusive [cytotoxic, single point] | 
COC(=O)c1ccc(NC(=O)Nc2cccc(F)c2)cc1 | inconclusive [cytotoxic, single point] | 
C(=C\c1ccccc1)/CN1CCN(C(c2ccnc3ccccc23)c2nnnn2C2CCCCC2)CC1 (stereo not given) | inconclusive [cytotoxic, single point] | 
CCN(CC)S(=O)(=O)c1ccc(OC)c(NC(=O)c2ccc([N+](=O)[O-])cc2)c1 |  | inactive: -8.36%
COCCN=c1scc(-c2cc(OC)c(OC)c(OC)c2)n1/N=C/c1c(C)[nH]c2ccccc12 | inconclusive [cytotoxic, partial curve] | 
CCCSc1nc(-c2ccccc2)cc(C(F)(F)F)c1C#N |  | inactive: -6.22%
O=C1c2cc([N+](=O)[O-])ccc2-c2ncccc21 |  | inactive: -2.21%

SMILES | Potency | activity, negative = toxicity
O=c1oc2ccccc2c(O)c1C=NCc1ccccn1 | inconclusive [cytotoxic, partial curve] | 
O=C(COc1ccccc1[N+](=O)[O-])N1CCCc2ccccc21 |  | inactive: 1.32%
Cc1cc(C)c(C(=O)/C=C/c2cccc3ccccc23)c(=O)[nH]1 | inconclusive [cytotoxic, single point] | 
O=C(/C=C/c1ccco1)Nc1sc2c(c1C(=O)O)CCC2 | inconclusive [cytotoxic, single point] | 
COc1ccc(C(C(O)C(=O)c2c[nH]c3ccccc23)N2CCN(c3ccc(OC)cc3)CC2)cc1 (stereo not given) | inconclusive [cytotoxic, single point] | 
CC1(c2ccccc2)NC(=O)N(CC(=O)Nc2cccc(/C=C/c3ccccn3)c2)C1=O (stereo not given) | inconclusive [cytotoxic, single point] | 
COc1ccc(-c2sc3cc(OC)c(OC)cc3c2C#CC2(O)CCCCC2)cc1 | inconclusive [cytotoxic, single point] | 
CCc1nc(N)nc(N)c1-c1ccc(Cl)c([N+](=O)[O-])c1 | active: 0.184 µM | 
O=C(Nc1cccc(-c2nc3ccccc3o2)c1)c1ccc(N2C(=O)C3C4C=CC(C4)C3C2=O)cc1 (stereo not given) | inconclusive [cytotoxic, full curve] | 
O=C(CCNC(=O)C1CCN(S(=O)(=O)c2ccccc2)CC1)NCCc1cccc(F)c1 |  | inactive: 0%
O=C(CN1C(=O)NC2(CCCC2)C1=O)NCc1cccc(Cl)c1 |  | inactive: 7.92%
O=C(COc1cccc2ccccc12)Nc1ccc(Cl)cc1C(=O)O | inconclusive [cytotoxic, single point] | 
CCOc1ccccc1-c1nc(-c2ccc(NC(=O)c3ccc(Br)o3)cc2)no1 | inconclusive [cytotoxic, partial curve] | 
Cc1[nH]c2ccccc2c1CCN(Cc1cccnc1)C(=S)Nc1cccc(F)c1 |  | inactive: -13.1%
O=C(CN(C(=O)c1csnn1)c1cccc(C(F)(F)F)c1)NCCc1ccccc1 |  | inactive: -9.07%
COc1ccc(C(C[N+](=O)[O-])c2c(C)cc3ccccn23)c(OC)c1 (stereo not given) | inconclusive [cytotoxic, single point] | 
C/C(=N\NC(=O)Cc1c[nH]c2ccccc12)c1ccc2ccccc2c1 | active: 16.4 µM | 
CCOc1ccc(-c2cnc(NCc3cccc4ccccc34)n2CCOC)cc1 | inconclusive [cytotoxic, single point] | 
COC(=O)[C@@]1(Sc2ccc(C)cc2)CC(=O)N(C(=O)/C=C/c2ccccc2)[C@@H]1c1ccccc1 | inconclusive [cytotoxic, single point] | 
Cn1cc(/C=N/NC(=O)c2cc3cc(Br)ccc3o2)c2ccccc21 | inconclusive [cytotoxic, partial curve, poor fit] | 
O=C(C[C@@H]1C[C@@H]2c3cc(NS(=O)(=O)c4ccc(F)cc4)ccc3O[C@@H]2[C@H](CO)O1)NCc1ccc(Oc2ccccc2)cc1 | inconclusive [cytotoxic, single point] | 
COC(=O)/C=C/c1cnc2ccccc2c1 |  | inactive: 14.4%
O=[N+]([O-])c1ccc(/C=N/Nc2nc(N3CCCC3)nc(N3CCCC3)n2)o1 | inconclusive [cytotoxic, single point] | 
O=S1(=O)c2ccc(Br)cc2N2CC[C@H](C2)N1Cc1ccc(Cl)cc1 | active: 7.31 µM | 

SMILES | Potency | activity, negative = toxicity
Cc1cc(Cl)c2c(c1)[C@]1(C(=O)N2)[C@@H]2C(=O)N(Cc3ccccc3)C(=O)[C@@H]2[C@@H]2CCCN21 | inconclusive [cytotoxic, single point] | 
CC(C)C(=O)N1CCC(c2nc(-c3ccc(S(=O)(=O)N4CCN(C)CC4)cc3)no2)CC1 |  | inactive: 4.94%
O=C(CNC(=S)NC(=O)c1ccco1)c1ccccc1 |  | inactive: 13.2%
COc1ccc(-[n+]2c(C)cc(/C=C3\Sc4ccccc4N3C)cc2C)cc1 | active: 2.31 µM | 
CCOc1c(OC)cccc1C1CC(=O)Nc2cc3c(cc21)OCCO3 (stereo not given) | inconclusive [cytotoxic, single point] | 
O=c1c2ccc(Cl)cc2nc(-c2cccc(C(F)(F)F)c2)n1O | inconclusive [cytotoxic, partial curve] | 
O=C(N/C(=C/c1ccc(Br)cc1)c1nc2ccccc2[nH]1)c1ccco1 | inconclusive [cytotoxic, single point] | 
CC(NCC(O)COc1ccc(S(=O)(=O)N2CCOCC2)cc1)c1ccccc1 (stereo not given) |  | inactive: -1.71%
Cc1cc(-c2nnc(SCC(=O)Nc3nc(-c4ccccc4)cs3)o2)no1 |  | inactive: 0.995%
N#CCc1nc(C(c2ccccc2)c2ccccc2)no1 |  | inactive: 4.78%
Cc1nc(-[n+]2nc(-c3ccncc3)nn2-c2ccccc2)sc1C | active: 10.3 µM | 
CCN1C(=O)c2cccc3c(S(=O)(=O)Nc4ccccc4OC)ccc1c23 |  | inactive: -10.6%
S=C(NCc1ccco1)Nc1cc(Cl)c(Cl)cc1Cl | inconclusive [cytotoxic, single point] | 
Cc1cccc(OCC(O)Cn2c(N3CCCCC3)nc3c2c(=O)n(C)c(=O)n3C)c1 (stereo not given) |  | inactive: 0.205%
O=C(Nc1ccc(F)c(Cl)c1)c1ccc2sc([C@H]3C[C@H](O)[C@@H](CO)O3)nc2c1 | inconclusive [cytotoxic, single point] | 
CC(C)Nc1ncnc2c1ncn2[C@H]1CN(CCN2CCOCC2)C[C@@H](CO)O1 |  | inconclusive: 30.8%
CCc1cc(C(=O)NNC(=S)NC(C)c2ccccc2)cs1 (stereo not given) | inconclusive [cytotoxic, single point] | 
COc1cc2c(cc1NC(=O)Nc1ccccc1)oc1ccccc12 | inconclusive [cytotoxic, partial curve] | 
COc1ccc(C(c2sc3nc(C)nn3c2O)N2CCN(Cc3ccccc3)CC2)cc1OC (stereo not given) |  | inactive: -3.87%
O=C(Nc1nccs1)c1sc2ccccc2c1Cl | inconclusive [cytotoxic, single point] | 
CCOC(=O)C1=CN(Cc2ccco2)S(=O)(=O)N(C)C1c1ccccc1 (stereo not given) | inconclusive [cytotoxic, single point] | 
COc1ccc(NS(=O)(=O)c2cccc(C(=O)NNC(=O)c3ccccc3O)c2)cc1 |  | inconclusive: -30.6% [cytotoxic]
